Data taken from the supplement of paper PMC3334620.
In all, about 33,000 sequences were measured (“E-score (-0.5 to 0.5)”: median about -0.043, highest 2% from about 0.37 on). The list shows a part of the results.

What follows are sequences tested against T1, Upc2 (UniProt Q12151) (assay: PBM E-score (8-mer binding enrichment) (E-score (-0.5 to 0.5)); higher = stronger / more preferred TF binding; most listed sequences are background and not binding sites). Conditions: protein concentration: 200 nM; construct: GST-full length.
T1 sequence: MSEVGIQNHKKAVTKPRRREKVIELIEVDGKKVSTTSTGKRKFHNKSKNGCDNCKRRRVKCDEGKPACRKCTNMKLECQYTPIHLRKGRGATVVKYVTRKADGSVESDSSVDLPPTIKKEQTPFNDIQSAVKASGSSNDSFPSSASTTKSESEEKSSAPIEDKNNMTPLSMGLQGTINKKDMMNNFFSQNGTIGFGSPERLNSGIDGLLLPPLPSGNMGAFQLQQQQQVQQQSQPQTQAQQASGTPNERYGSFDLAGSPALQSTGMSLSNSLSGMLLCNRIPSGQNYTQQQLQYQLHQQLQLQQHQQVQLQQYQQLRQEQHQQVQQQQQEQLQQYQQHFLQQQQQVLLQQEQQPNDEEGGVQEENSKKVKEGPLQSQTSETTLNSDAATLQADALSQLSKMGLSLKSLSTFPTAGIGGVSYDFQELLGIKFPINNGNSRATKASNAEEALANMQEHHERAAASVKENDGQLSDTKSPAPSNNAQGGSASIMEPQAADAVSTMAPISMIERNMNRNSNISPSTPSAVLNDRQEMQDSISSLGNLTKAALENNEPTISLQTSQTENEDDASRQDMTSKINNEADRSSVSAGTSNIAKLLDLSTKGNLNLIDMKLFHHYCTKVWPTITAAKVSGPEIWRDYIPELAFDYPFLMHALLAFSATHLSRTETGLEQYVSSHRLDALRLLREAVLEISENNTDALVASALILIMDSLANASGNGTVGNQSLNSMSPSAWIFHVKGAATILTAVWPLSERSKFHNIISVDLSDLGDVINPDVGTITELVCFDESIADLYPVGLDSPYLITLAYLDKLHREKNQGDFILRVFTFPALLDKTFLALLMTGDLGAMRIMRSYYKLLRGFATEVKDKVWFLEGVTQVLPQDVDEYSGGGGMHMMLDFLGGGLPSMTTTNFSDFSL
In short: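 Masliner-normalised scans of fluorescent anti-GST signal were the basis for scoring. That signal came from GST-tagged yeast transcription factors applied at about 100-200 nM to double-stranded universal all-10-mer Agilent arrays on fresh or once-stripped slides. Each ungapped eight-base word, pooled with its reverse complement, received an E-score from the Universal PBM Analysis Suite.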

Sequence | PBM E-score
ACACATAT | -0.0137
CACTAAGG | -0.099
CTGAGGTA | -0.203
CAATGACC | -0.116
GCGTGATA | 0.0376
CACTTCAC | -0.3
AGCGCAAC | 0.149
CGGATTGC | 0.0416
CTTTGAAC | 0.0876
AAGTCAAG | -0.204
ATGTTCTG | -0.036
CCATTCCG | -0.109
TCAAACAA | -0.0805
GGACCTCC | -0.217
ATTCTCCC | -0.293
CAGTCTGA | -0.101
CGGTCGAA | -0.00348
GCATTAGC | -0.157
ATTAAGAA | 0.188
GGGTACCA | -0.275
ATCGCCTA | -0.0815
ACAGAGTA | 0.0516

Sequence | PBM E-score
GAGAAATA | 0.0258
AATAAGGC | -0.195
ATCCAGAA | 0.0453
ACGTTTTA | 0.188
GACTATAC | 0.319
TACCTTAA | 0.274
CAGTCAGA | -0.196
CCGGGGGC | -0.164
ACAGAGCT | -0.262
CCGTATAA | 0.483
AAATCGTT | 0.339
CCCTGCCA | -0.134
CCAGGCAG | -0.242
ACAAATAG | -0.0638
CACCCCAA | -0.0176
CCCGTTTA | 0.456
GGTCTATA | 0.123
CTTGCCAC | -0.166
GTTGGGCA | 0.0235
AGTGCTTA | -0.0919
AGTGGGCC | -0.0427
GGTATTGA | -0.0792

Sequence | PBM E-score
GCCTTTAC | 0.157
AATACACT | -0.0573
AAGTAGGT | -0.0897
GTGTAAAA | 0.0224
CTCCTATC | 0.0617
ATGCGGGA | -0.00313
ATTTTAAA | 0.094
ACTCTTTA | -0.0488
AATGCGTA | 0.213
GTGCGTGA | 0.0172
CTCGCGCC | -0.0598
AGCGACTA | 0.154
CAAGGCTA | -0.0665
ACATCCTA | -0.0708
CTTGCATC | -0.0814
ATGCCGCC | -0.0495
AAAAGACC | -0.189
CATGCAAC | -0.0312
CCAGCGAC | -0.2
CTAATAAC | 0.152
AGTATAGG | 0.125
ACGGAAAT | 0.178

Sequence | PBM E-score
GAACGCAA | 0.0539
CTTGCGAA | 0.175
ACTGCGTC | -0.0922
ATCGTCGG | 0.0867
ACTCGTTC | 0.46
TAGCACCA | -0.234
GCGAGTCA | 0.0768
CGCAACTC | -0.0467
AGGTTAGG | -0.175
AACAAAAA | 0.0558
ACCCAGGT | -0.336
AAAAGGTG | 0.028
ATACTAGG | -0.106
AAGGGCCC | -0.0289
ATCACGCG | 0.0976
AGCGTACA | 0.301
ATCATGGG | -0.284
CCCCCGAG | -0.32
AGGCCCGG | -0.38
AGAAGTTA | -0.122
